Experimental data as given in PMC7819943, “Rice protein-binding microarrays: a tool to detect cis-acting elements near promoter regions in rice”.
The other results are listed elsewhere or left out.

What follows are sequences tested against T1, OsWOX13 (Oryza sativa, UniProt Q5QMM3 1-267) (assay: protein-binding microarray (RPBM); PBS, 2% BSA, 51.3 ng/ul salmon testes DNA, 50 uM zinc acetate, 200 nM TF, 25 C, 1 h; high values mean tight binding). Settings: protein: recombinant; tags: N-terminal polyhistidine and DsRed monomer fusion (pET32a); label: CyDye5-dUTP incorporated in the synthesized complementary strand; 3' TTTTT single-stranded linker to array surface; dsDNA, one strand shown.
T1 sequence: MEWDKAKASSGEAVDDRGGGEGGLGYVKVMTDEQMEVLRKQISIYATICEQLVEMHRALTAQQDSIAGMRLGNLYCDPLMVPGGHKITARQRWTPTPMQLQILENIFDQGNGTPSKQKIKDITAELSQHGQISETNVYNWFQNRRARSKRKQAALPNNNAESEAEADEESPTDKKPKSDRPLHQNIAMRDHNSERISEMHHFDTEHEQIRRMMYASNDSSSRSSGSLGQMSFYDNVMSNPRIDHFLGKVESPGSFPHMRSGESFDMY
How it was run: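 Using Ni–NTA, transcription factors fused N-terminally to polyhistidine and DsRed were purified after expression in E. coli BL21-CodonPlus. These were incubated at 200 nM with a blocked, double-stranded custom Agilent array for 1 h at 25 °C in a buffer containing 50 µM zinc acetate, and the array was washed. The binding signal is per-feature fluorescence intensity (arbitrary units) on an Axon 4000B scanner.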
In the case of “GACTGATGGCTCTGATGGAGGGTGATCACATTGGCCCTTTCGGAGTCACCTAGTGCAG”, the binding signal is reported as 6730 fluorescence intensity (a.u.).
“CATTCTAATTGCACCAGTCCCCGCCAATAATCAACGCATTCGGAGTCACCTAGTGCAG” was tested, and the binding signal was 22100 fluorescence intensity (a.u.).
In the case of “CGATCTGAATGTTAATTAGTGGTTGGCAGGCAGGCGCCAACGGAGTCACCTAGTGCAG”, the binding signal is reported as 7940 fluorescence intensity (a.u.).
For “ACAATTGACAAGAGGCAAGATACCTTTTGTGGTGGGTTGTCGGAGTCACCTAGTGCAG”, the binding signal was 10800 fluorescence intensity (a.u.).
With “GCCTTTAGATAATTAATCTACGGTCCAAACTATCCCAATACGGAGTCACCTAGTGCAG” the binding signal was 6520 fluorescence intensity (a.u.).
In the case of “GTTTCACTAAATTATTTGGAATGTTGCATGTGATATTCTTCGGAGTCACCTAGTGCAG”, the binding signal is reported as 4100 fluorescence intensity (a.u.).
In the case of “TCCCAAGTGGTGATTTGTTGCTGAAAGTGCTCCTCCTTTTCGGAGTCACCTAGTGCAG”, the binding signal is reported as 4460 fluorescence intensity (a.u.).
In the case of “GTAAATTACACTGGTAGTTCTTAAACTTGTAACGAAGTTTCGGAGTCACCTAGTGCAG”, the binding signal is reported as 7520 fluorescence intensity (a.u.).
“GTAGTTAATTAGCACATTCTCTCCCCTAAATTATTACTCCCGGAGTCACCTAGTGCAG” was tested, and the binding signal was 21300 fluorescence intensity (a.u.).
In the case of “ACATATCTTAAGATTGATGAAGTCACCACGAACGCCTCGCCGGAGTCACCTAGTGCAG”, the binding signal is reported as 11700 fluorescence intensity (a.u.).
“ATTCTTAAATTGTTTTAACTAATACTTAATCAGCCATGAACGGAGTCACCTAGTGCAG” was tested, and the binding signal was 7790 fluorescence intensity (a.u.).
In the case of “ACGGAACAATTTATTAGCACATGATTAAATAAATATTAGTCGGAGTCACCTAGTGCAG”, the binding signal is reported as 6640 fluorescence intensity (a.u.).
For “ATGGTTCTGATGTCATTGATAGATTTGAGAGAACATGTACCGGAGTCACCTAGTGCAG”, the binding signal was 10700 fluorescence intensity (a.u.).
“ATCTCAACAATCAATCGAATTAGACAAACAACTCATCAGGCGGAGTCACCTAGTGCAG” was tested, and the binding signal was 13500 fluorescence intensity (a.u.).
With “TGGAAGATTGGCACGGACGATCCCCGGAAGGCGACGTACGCGGAGTCACCTAGTGCAG” the binding signal was 11600 fluorescence intensity (a.u.).
With “TGCCTAATTGATTAGTACTAGATACTTTCTGCATCACTACCGGAGTCACCTAGTGCAG” the binding signal was 43100 fluorescence intensity (a.u.).
In the case of “ACACGTGAAGGATAATAATTATGTCTCTCTGAAATTAAGTCGGAGTCACCTAGTGCAG”, the binding signal is reported as 3800 fluorescence intensity (a.u.).
In the case of “ATATTGATTAGGCTCTCGGCTCTCTATTTAACCAACTGAACGGAGTCACCTAGTGCAG”, the binding signal is reported as 34300 fluorescence intensity (a.u.).
In the case of “AGAAATTGAACGTGATTAACGGGGAGGGCACTAGTGAGGCCGGAGTCACCTAGTGCAG”, the binding signal is reported as 53000 fluorescence intensity (a.u.).
For “AGTTAAATTAGAAAGTGGAACACTACCAAACAAGTTCACACGGAGTCACCTAGTGCAG”, the binding signal was 5980 fluorescence intensity (a.u.).
With “ATAACCAAATCATAAATTATATAAATGGGTTAAGAGAAAACGGAGTCACCTAGTGCAG” the binding signal was 14700 fluorescence intensity (a.u.).
With “ATTTGATTTATTGTTAAATATACTTTCATGTACACATATACGGAGTCACCTAGTGCAG” the binding signal was 23700 fluorescence intensity (a.u.).
“AGCTAAATTGATTCGTGCACCCAAGTCAACAAGAAAACGTCGGAGTCACCTAGTGCAG” was tested, and the binding signal was 38900 fluorescence intensity (a.u.).
In the case of “TATATATGACAGATAAACGCTGCGGTGCCCTAGTGTGTGTCGGAGTCACCTAGTGCAG”, the binding signal is reported as 3150 fluorescence intensity (a.u.).
In the case of “CAATAATTAAAACTCAATTAATCATACGCTAATAGCTTTTCGGAGTCACCTAGTGCAG”, the binding signal is reported as 37300 fluorescence intensity (a.u.).
“AAATAGTTTATACTCAATTAATTATATGCTAATAGCTCACCGGAGTCACCTAGTGCAG” was tested, and the binding signal was 12800 fluorescence intensity (a.u.).
For “AAAATTATGCGTCCTAATCATCAATCAACATATGAAGAAGCGGAGTCACCTAGTGCAG”, the binding signal was 20600 fluorescence intensity (a.u.).
In the case of “ACGGCCCAATCACGCGCGCACGGCTCGGCCCGCGAGGCGTCGGAGTCACCTAGTGCAG”, the binding signal is reported as 3480 fluorescence intensity (a.u.).
“GCTCATCTATTCAATGAAATTGGCGGCTTACTGATTTGTTCGGAGTCACCTAGTGCAG” was tested, and the binding signal was 3210 fluorescence intensity (a.u.).
With “AGGAACAATTAAATTAAATTAAATTAAATTGCCTTAATATCGGAGTCACCTAGTGCAG” the binding signal was 35300 fluorescence intensity (a.u.).
For “TATTAATTTGTAATTAATATTGAATAACGCTGCGTGAGTACGGAGTCACCTAGTGCAG”, the binding signal was 45900 fluorescence intensity (a.u.).
“GTATGGTTAATGGACTACTAATTATTATAAACTTAGAGCACGGAGTCACCTAGTGCAG” was tested, and the binding signal was 28300 fluorescence intensity (a.u.).
For “AGTCAATCTTAACCTCTTGTTTTCTCTGCAATTGCATCTTCGGAGTCACCTAGTGCAG”, the binding signal was 4740 fluorescence intensity (a.u.).
“CCTAATCTCTTAACATAATATACTTCACTCCCTTGGCACCCGGAGTCACCTAGTGCAG” was tested, and the binding signal was 3230 fluorescence intensity (a.u.).
“GATTAATTAGGCTTAATAAATTCGTCTCGCAGTTTACAAGCGGAGTCACCTAGTGCAG” was tested, and the binding signal was 37400 fluorescence intensity (a.u.).
“TAACTATCCATTAACATATGATTAAATATTAGCTTTAAAACGGAGTCACCTAGTGCAG” was tested, and the binding signal was 6240 fluorescence intensity (a.u.).
“AAATTAAATCAAACTGATAATTTTCTGTTCGTCACATCGGCGGAGTCACCTAGTGCAG” was tested, and the binding signal was 17000 fluorescence intensity (a.u.).
In the case of “GTTATGATTAATTGCGCCATTAGGATATTAATTAATCTGGCGGAGTCACCTAGTGCAG”, the binding signal is reported as 54500 fluorescence intensity (a.u.).
“CCAACAAATTGCCATTCTGCTGATTCAAGTGGCAGTTTTGCGGAGTCACCTAGTGCAG” was tested, and the binding signal was 18100 fluorescence intensity (a.u.).
In the case of “AGATTTTACTAATTAACATGAGAGTTACTAGAGAGTTCCACGGAGTCACCTAGTGCAG”, the binding signal is reported as 8670 fluorescence intensity (a.u.).
In the case of “TTTGATTGATTAGTTTGGGGATAATGAAGAAAGTAATTTTCGGAGTCACCTAGTGCAG”, the binding signal is reported as 47100 fluorescence intensity (a.u.).
For “ATGCAATCAGGTTAATTAACCAAATCAGCAGATTGCGTAGCGGAGTCACCTAGTGCAG”, the binding signal was 29700 fluorescence intensity (a.u.).
